# Source: the supplement of paper PMC8728848
# The list shows a part of the results.
# Experiments:
# Assay in all cases: glycan array binding signal (z-score within array); higher = stronger binding
# Details in all cases: glycan notation: IUPAC condensed, linker removed
# [1] = molecular target: Man(a1-2)Man(a1-3)[Man(a1-2)Man(a1-6)]Man(a1-6)[Man(a1-2)Man(a1-2)Man(a1-3)]Man
# Outline: (§1)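 From the Consortium for Functional Glycomics database, 3228 arrays were curated, keeping only those whose protein sequence was available. Binding is given as a within-array Z-score averaged across arrays sharing a protein sequence and across linkers. Negative Z-scores can be read as non-binding.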
# [2] = molecular target: Man(a1-2)Man(a1-3)[Man(a1-2)Man(a1-6)]Man(a1-6)[Man(a1-2)Man(a1-2)Man(a1-3)]Man(b1-4)GlcNAc(b1-4)GlcNAc
# Outline: as §1
# [3] = molecular target: Man(a1-2)Man(a1-3)[Man(a1-6)]Man(a1-6)[Man(a1-2)Man(a1-3)]Man(b1-4)GlcNAc(b1-4)GlcNAc
# Outline: as §1
# [4] = molecular target: Man(a1-2)Man(a1-6)[Man(a1-3)]Man(a1-6)[Man(a1-2)Man(a1-2)Man(a1-3)]Man
# Outline: as §1
# [5] = molecular target: Man(a1-2)Man(a1-6)[Man(a1-3)]Man(a1-6)[Man(a1-2)Man(a1-2)Man(a1-3)]Man(b1-4)GlcNAc(b1-4)GlcNAc
# Outline: as §1
# Man(a1-3)[Man(a1-6)]Man = molecular target: Man(a1-3)[Man(a1-6)]Man
# Outline: as §1
# [6] = molecular target: Man(a1-3)[Man(a1-6)]Man(a1-6)[Man(a1-2)Man(a1-3)]Man(b1-4)GlcNAc(b1-4)GlcNAc
# Outline: as §1
# [7] = molecular target: Man(a1-3)[Man(a1-6)]Man(a1-6)[Man(a1-3)]Man
# Outline: as §1
# [8] = molecular target: Man(a1-3)[Man(a1-6)]Man(a1-6)[Man(a1-3)]Man(b1-4)GlcNAc(b1-4)GlcNAc
# Outline: as §1
# [9] = molecular target: Man(a1-3)[Man(a1-6)]Man(b1-4)GlcNAc(b1-4)GlcNAc
# Outline: as §1
# [10] = molecular target: Man(a1-3)[Man(a1-6)]Man(b1-4)GlcNAc(b1-4)[Fuc(a1-6)]GlcNAc
# Outline: as §1
# Man(a1-6)Man = molecular target: Man(a1-6)Man
# Outline: as §1
# Man(b1-4)GlcNAc = molecular target: Man(b1-4)GlcNAc
# Outline: as §1
# MurNAc(b1-4)GlcNAc = molecular target: MurNAc(b1-4)GlcNAc
# Outline: as §1
# Neu5Ac(a2-3)Gal = molecular target: Neu5Ac(a2-3)Gal
# Outline: as §1
# [11] = molecular target: Neu5Ac(a2-3)Gal(b1-3)GalNAc
# Outline: as §1
# [12] = molecular target: Neu5Ac(a2-3)Gal(b1-3)GalNAc(b1-3)Gal(a1-4)Gal(b1-4)Glc
# Outline: as §1
# [13] = molecular target: Neu5Ac(a2-3)Gal(b1-3)GalNAc(b1-4)[Neu5Ac(a2-3)]Gal(b1-4)Glc
# Outline: as §1
# [14] = molecular target: Neu5Ac(a2-3)Gal(b1-3)GalNAc(b1-4)[Neu5Ac(a2-8)Neu5Ac(a2-3)]Gal(b1-4)Glc
# Outline: as §1
# [15] = molecular target: Neu5Ac(a2-3)Gal(b1-3)GalNAc6S
# Outline: as §1
# [16] = molecular target: Neu5Ac(a2-3)Gal(b1-3)GlcNAc
# Outline: as §1
# [17] = molecular target: Neu5Ac(a2-3)Gal(b1-3)GlcNAc(b1-2)Man
# Outline: as §1
# [18] = molecular target: Neu5Ac(a2-3)Gal(b1-3)GlcNAc(b1-2)Man(a1-3)[GlcNAc(b1-4)][Neu5Ac(a2-3)Gal(b1-3)GlcNAc(b1-2)Man(a1-6)]Man(b1-4)GlcNAc(b1-4)GlcNAc
# Outline: as §1
# [19] = molecular target: Neu5Ac(a2-3)Gal(b1-3)GlcNAc(b1-2)Man(a1-3)[Neu5Ac(a2-3)Gal(b1-3)GlcNAc(b1-2)Man(a1-6)]Man(b1-4)GlcNAc(b1-4)GlcNAc
# Outline: as §1
# [20] = molecular target: Neu5Ac(a2-3)Gal(b1-3)GlcNAc(b1-3)Gal(b1-3)GlcNAc
# Outline: as §1
# [21] = molecular target: Neu5Ac(a2-3)Gal(b1-3)GlcNAc(b1-3)Gal(b1-4)GlcNAc
# Outline: as §1
# [22] = molecular target: Neu5Ac(a2-3)Gal(b1-3)GlcNAc(b1-3)GalNAc
# Outline: as §1
# [23] = molecular target: Neu5Ac(a2-3)Gal(b1-3)GlcNAc(b1-4)Gal(b1-4)Glc
# Outline: as §1
# [24] = molecular target: Neu5Ac(a2-3)Gal(b1-3)GlcNAc(b1-6)GalNAc
# Outline: as §1
# [25] = molecular target: Neu5Ac(a2-3)Gal(b1-3)GlcNAc6S
# Outline: as §1
# [26] = molecular target: Neu5Ac(a2-3)Gal(b1-3)[Fuc(a1-4)]GlcNAc
# Outline: as §1
# [27] = molecular target: Neu5Ac(a2-3)Gal(b1-3)[Fuc(a1-4)]GlcNAc(b1-3)Gal(b1-3)[Fuc(a1-4)]GlcNAc
# Outline: as §1
# [28] = molecular target: Neu5Ac(a2-3)Gal(b1-3)[Fuc(a1-4)]GlcNAc(b1-3)Gal(b1-4)[Fuc(a1-3)]GlcNAc
# Outline: as §1
# [29] = molecular target: Neu5Ac(a2-3)Gal(b1-3)[GlcNAc(b1-6)]GalNAc
# Outline: as §1
# [30] = molecular target: Neu5Ac(a2-3)Gal(b1-3)[Neu5Ac(a2-6)]GalNAc
# Outline: as §1
# [31] = molecular target: Neu5Ac(a2-3)Gal(b1-3)[Neu5Ac(a2-6)]GlcNAc(b1-3)[Fuc(a1-3)[Gal(b1-4)]GlcNAc(b1-6)]Gal(b1-4)Glc
# Outline: as §1
# [32] = molecular target: Neu5Ac(a2-3)Gal(b1-3)]Neu5Ac(a2-3)Gal(b1-4)]GlcNAc
# Outline: as §1
# Neu5Ac(a2-3)Gal(b1-4)Glc = molecular target: Neu5Ac(a2-3)Gal(b1-4)Glc
# Outline: as §1
binder,measurement,setting,value
FimD (Bordetella pertussis) (protein) MPARVISFCGAALAVWAGLAVQPAMAVDPPVDCGRALGLHFWSSASLISDQTPDGTLIGKPVVGRSLLSKSCKVPDDIKEDLSDNHDGEPVDIVLELGSNYKIRPQSYGHPGIVVDLPFGSTEETGIAIYIDFGSSPMQKVGERQWLYPQKGEVLFDVLTINGDNAEVRYQAIKVGPLKRPRKLVLSQFPNLFTYKWVFMRGTSQERVLAQGTIDTDVATSTIDLKTCRYTSQTVSLPIIQRSALTGVGTTLGMTDFQMPFWCYGWPKVSVYMSATKTQTGVDGVALPATGQAAGMASGVGVQLINGKTQQPVKLGLQGKIALPEAQQTESATFSLPMKAQYYQTSTSTSAGKLSVTYAVTLNYD,glycan array binding signal (z-score),[1],-0.23
same,glycan array binding signal (z-score),[2],-0.08
same,glycan array binding signal (z-score),[3],-0.263
same,glycan array binding signal (z-score),[4],-0.687
same,glycan array binding signal (z-score),[5],-0.313
same,glycan array binding signal (z-score),Man(a1-3)[Man(a1-6)]Man,-0.169
same,glycan array binding signal (z-score),[6],-0.235
same,glycan array binding signal (z-score),[7],0.194
same,glycan array binding signal (z-score),[8],-0.464
same,glycan array binding signal (z-score),[9],-0.351
same,glycan array binding signal (z-score),[10],-0.311
same,glycan array binding signal (z-score),Man(a1-6)Man,-0.037
same,glycan array binding signal (z-score),Man(b1-4)GlcNAc,0.06
same,glycan array binding signal (z-score),MurNAc(b1-4)GlcNAc,-0.13
same,glycan array binding signal (z-score),Neu5Ac(a2-3)Gal,0.164
same,glycan array binding signal (z-score),[11],0.041
same,glycan array binding signal (z-score),[12],-0.186
same,glycan array binding signal (z-score),[13],-0.245
same,glycan array binding signal (z-score),[14],-0.499
same,glycan array binding signal (z-score),[15],-0.442
same,glycan array binding signal (z-score),[16],0.293
same,glycan array binding signal (z-score),[17],-0.437
same,glycan array binding signal (z-score),[18],-0.459
same,glycan array binding signal (z-score),[19],-0.411
same,glycan array binding signal (z-score),[20],0.185
same,glycan array binding signal (z-score),[21],-0.268
same,glycan array binding signal (z-score),[22],-0.152
same,glycan array binding signal (z-score),[23],-0.418
same,glycan array binding signal (z-score),[24],-0.072
same,glycan array binding signal (z-score),[25],-0.032
same,glycan array binding signal (z-score),[26],0.088
same,glycan array binding signal (z-score),[27],-0.191
same,glycan array binding signal (z-score),[28],0.183
same,glycan array binding signal (z-score),[29],-0.392
same,glycan array binding signal (z-score),[30],-0.143
same,glycan array binding signal (z-score),[31],0.25
same,glycan array binding signal (z-score),[32],-0.004
same,glycan array binding signal (z-score),Neu5Ac(a2-3)Gal(b1-4)Glc,0.091
